Test results as given in ChEMBL document CHEMBL5606458, “ASAP - ZIKV NS2B-NS3 protease fluorescence single point” (2024).
Among all 2,700 compounds or so, about 160 (5.9%) showed an effect of 50% or more. The list shows a part of the results.

Molecular target: Nonstructural protein 3 (Zika virus) (UniProt A0A024AXB9)
[1] = PRVABC59, Concentration 50.0 uM, Number of replicates 1.0
[2] = PRVABC59, Concentration 15.0 uM, Number of replicates 1.0
[3] = PRVABC59, Concentration 10.0 uM, Number of replicates 1.0

UniProt A0A024AXB9, sequence (A0A024AXB9 as listed by the source): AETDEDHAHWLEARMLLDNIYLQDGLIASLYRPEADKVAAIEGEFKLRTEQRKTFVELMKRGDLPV

Q: For Cc1ccc(CNC(=O)C2CCN(C(=O)C3CCN(c4ccc(C=O)cc4)CC3)CC2)cc1, which inhibition [1] is on record?
A: 28%

Q: COc1ccccc1[C@H](C)NC(=O)c1cc(Cl)ccc1NS(=O)(=O)c1ccc(Oc2ccccc2Cl)cc1 was tested. Which inhibition [2] did it give?
A: 26.2%

Q: Which inhibition [1] does the source give for Cc1ccc(C)n1CCN1CCN(C(=O)C2CCN(c3ccc(C=O)cc3)CC2)CC1 here?
A: 10.3%

Q: How did the inhibition (PRVABC59, Concentration 49.5 uM, Number of replicates 2.0, Standard deviation 3.2905497434323143 %) turn out when Cc1nn(Cc2ccc3[nH]cnc3c2)cc1C1CCNCC1 was run?
A: 1.73%

Q: And the inhibition (PRVABC59, Concentration 99.01 uM, Number of replicates 2.0, Standard deviation 4.369012930308915 %)?
A: 3.09%

Q: And the inhibition (PRVABC59, Concentration 198.0 uM, Number of replicates 2.0, Standard deviation 1.1716639282832062 %)?
A: 2.4%

Q: CN(Cc1ccc(N2CCOCC2)cc1)C(=O)C1CCN(c2ccc(C=O)cc2)CC1 was tested. Which inhibition [1] did it give?
A: 21.5%

Q: For CCS(=O)(=O)CCN(C)C(=O)C1CCN(c2ccc(C=O)cc2)CC1, which inhibition [1] is on record?
A: 23.1%

Q: With Cc1nc([C@H]2CCN(C(=O)c3n[nH]cc3[C@H]3CCCNC3)C2)n[nH]1 as the molecule, how does the inhibition (PRVABC59, Concentration 49.5 uM, Number of replicates 2.0, Standard deviation 7.696952726937103 %) read?
A: -4.4%

Q: What about the inhibition (PRVABC59, Concentration 99.01 uM, Number of replicates 2.0, Standard deviation 2.0798394152552206 %) of the same molecule?
A: -7.33%

Q: And the inhibition (PRVABC59, Concentration 198.0 uM, Number of replicates 2.0, Standard deviation 3.139088341959503 %)?
A: -5.94%

Q: For O=C(NCc1cc(F)cc(Cl)c1)c1cc(Cl)ccc1NS(=O)(=O)c1ccc(Oc2ccccc2Cl)cc1, which inhibition [2] is on record?
A: 31.5%

Q: With CC(C)(O)CC(=O)Nc1cc(Cl)cc(C(=O)NC(C)(C)CO)c1 as the molecule, how does the inhibition (PRVABC59, Concentration 49.5 uM, Number of replicates 2.0, Standard deviation 4.361404816398435 %) read?
A: 3.87%

Q: And the inhibition (PRVABC59, Concentration 99.01 uM, Number of replicates 2.0, Standard deviation 3.6424291033495835 %)?
A: 6.73%

Q: What about the inhibition (PRVABC59, Concentration 198.0 uM, Number of replicates 2.0, Standard deviation 1.2781790454201811 %) of the same molecule?
A: 5.16%

Q: For COc1c(C)cnc(CN(C)C(=O)C2CCN(c3ccc(C=O)cc3)CC2)c1C, which inhibition [1] is on record?
A: 22.9%

Q: CC[C@]1(c2ccc(NC(=O)C3CCN(c4ccc(C=O)cc4)CC3)cc2)CCC(=O)NC1=O was tested. Which inhibition [1] did it give?
A: 21.4%

Q: With O=C(Nc1ccc(OC(F)F)cc1)c1cc(Cl)ccc1NS(=O)(=O)c1ccc(Oc2ccccc2Cl)cc1 as the molecule, how does the inhibition [2] read?
A: 57.7%

Q: Which inhibition [1] does the source give for O=Cc1ccc(N2CCC(C(=O)NC[C@H]3CCCN(C4CCCC4)C3)CC2)cc1 here?
A: 25.1%

Q: Cc1cccc(N2CCN(C(=O)C3CCN(c4ccc(C=O)cc4)CC3)C[C@@H]2C)c1 was tested. Which inhibition [1] did it give?
A: 23.3%

Q: How did the inhibition (PRVABC59, Concentration 99.9 uM, Number of replicates 2.0, Standard deviation 1.3436712019086534 %) turn out when Cc1cc(CO)c2cccc(CC(=O)NCc3ccc(S(N)(=O)=O)cc3)c2n1 was run?
A: -9.02%

Q: O=Cc1ccc(N2CCC(C(=O)NCc3cc(F)ccc3Br)CC2)cc1 was tested. Which inhibition [3] did it give?
A: 4.33%

Q: With CC(=O)N[C@@H](CCCN)C(=O)Nc1cccc(Cc2cccc3c(CO)cc(C)nc23)c1 as the molecule, how does the inhibition (PRVABC59, Concentration 49.95 uM, Number of replicates 2.0, Standard deviation 1.358939825012392 %) read?
A: 1.03%

Q: What about the inhibition (PRVABC59, Concentration 99.9 uM, Number of replicates 2.0, Standard deviation 0.3511877722800543 %) of the same molecule?
A: 17.3%

Q: With O=C(c1ccccc1Cl)N1CCN(C(=O)c2cc(Cl)ccc2NS(=O)(=O)c2ccc(Oc3ccccc3Cl)cc2)CC1 as the molecule, how does the inhibition [2] read?
A: 15.8%

Q: Cc1cc(NC(=O)c2cc(Cl)ccc2NS(=O)(=O)c2ccc(Oc3ccccc3Cl)cc2)cc(C)c1Br was tested. Which inhibition [2] did it give?
A: 27.6%

Q: What does the source list for O=C(c1nc2ccccc2[nH]1)N1CCC[C@H](n2cnc3ccccc32)C1?
A: inhibition (PRVABC59, Concentration 49.5 uM, Number of replicates 2.0, Standard deviation 2.107131691302147 %): 3.97%; inhibition (PRVABC59, Concentration 99.01 uM, Number of replicates 2.0, Standard deviation 2.096878290290114 %): 3.14%; inhibition (PRVABC59, Concentration 198.0 uM, Number of replicates 2.0, Standard deviation 0.3640057247302785 %): 0.803%

Q: With Cc1ccc2ccccc2c1NC(=O)C1CCN(c2ccc(C=O)cc2)CC1 as the molecule, how does the inhibition [1] read?
A: 19.8%

Q: What does the source list for Cc1cc(CO)c2cccc(Cc3cccc(C(=O)Nc4cc(C)on4)c3)c2n1?
A: inhibition (PRVABC59, Concentration 49.95 uM, Number of replicates 2.0, Standard deviation 0.5505632705734445 %): 18.4%; inhibition (PRVABC59, Concentration 99.9 uM, Number of replicates 2.0, Standard deviation 1.053935557806211 %): 51.2%

Q: What does the source list for O=C(NCc1cnn2c1CNCC2)c1cccc2ncccc12?
A: inhibition (PRVABC59, Concentration 49.5 uM, Number of replicates 2.0, Standard deviation 0.8803106038412188 %): -2.64%; inhibition (PRVABC59, Concentration 99.01 uM, Number of replicates 2.0, Standard deviation 1.470636307117902 %): -1.92%; inhibition (PRVABC59, Concentration 198.0 uM, Number of replicates 2.0, Standard deviation 2.500081737905502 %): -1.7%

Q: Cc1cc(CO)c2cccc(C[C@H](NC(=O)c3cc(C(=O)O)[nH]n3)C(=O)O)c2n1 was tested. Which inhibition (PRVABC59, Concentration 49.95 uM, Number of replicates 2.0, Standard deviation 1.6911148062176817 %) did it give?
A: 1.37%

Q: What about the inhibition (PRVABC59, Concentration 99.9 uM, Number of replicates 2.0, Standard deviation 1.9620942703325182 %) of the same molecule?
A: 8.92%

Q: For CCCC[C@@H](CC)CN(C[C@@H](CC)CCCC)C(=O)C1CCN(c2ccc(C=O)cc2)CC1, which inhibition [1] is on record?
A: 24.3%

Q: Which inhibition [2] does the source give for CC(=O)N(C)C1CCN(C(=O)c2cc(Cl)ccc2NS(=O)(=O)c2ccc(Oc3ccccc3Cl)cc2)CC1 here?
A: -3.52%

Q: How did the inhibition (PRVABC59, Concentration 49.5 uM, Number of replicates 2.0, Standard deviation 1.0725908066283456 %) turn out when Cc1c(C(=O)N[C@@H](c2c[nH]nn2)C(C)C)ccc(O)c1NC(=O)c1ccncc1F was run?
A: 0.004%

Q: What about the inhibition (PRVABC59, Concentration 99.01 uM, Number of replicates 2.0, Standard deviation 2.2280871616759246 %) of the same molecule?
A: 0.286%

Q: And the inhibition (PRVABC59, Concentration 198.0 uM, Number of replicates 2.0, Standard deviation 3.5286682264571616 %)?
A: 1.58%

Q: For CNC(=O)c1cc(Cl)ccc1NS(=O)(=O)Cc1cccc(C#N)c1, which inhibition (PRVABC59, Concentration 49.5 uM, Number of replicates 2.0, Standard deviation 0.7845443660673714 %) is on record?
A: -4.96%

Q: And the inhibition (PRVABC59, Concentration 99.01 uM, Number of replicates 2.0, Standard deviation 0.817752710946075 %)?
A: -7.22%

Q: What does the source list for Cc1cc(N)cc(CNC(=O)c2cccc(Cc3cccc4c(CO)cc(C)nc34)c2)c1?
A: inhibition (PRVABC59, Concentration 49.95 uM, Number of replicates 2.0, Standard deviation 0.660675115468642 %): 22.4%; inhibition (PRVABC59, Concentration 99.9 uM, Number of replicates 2.0, Standard deviation 1.0067445744655332 %): 46.9%

Q: With COc1cc(F)ccc1CNC(=O)C1CCN(c2ccc(C=O)cc2)CC1 as the molecule, how does the inhibition [3] read?
A: 6.71%

Q: Which inhibition (PRVABC59, Concentration 49.5 uM, Number of replicates 2.0, Standard deviation 3.9651835158061277 %) does the source give for CCC(=O)Nc1ccc(S(=O)(=O)Nc2ccc(Cl)cc2C(=O)NC)cc1 here?
A: -1.04%

Q: What about the inhibition (PRVABC59, Concentration 99.01 uM, Number of replicates 2.0, Standard deviation 6.374730224823037 %) of the same molecule?
A: 1.28%

Q: And the inhibition (PRVABC59, Concentration 198.0 uM, Number of replicates 2.0, Standard deviation 2.8851147202870395 %)?
A: 2.52%

Q: With Cc1cc(CO)c2cccc(NC(=O)c3ccc(N)nn3)c2n1 as the molecule, how does the inhibition (PRVABC59, Concentration 49.95 uM, Number of replicates 2.0, Standard deviation 1.640933261630777 %) read?
A: 3.67%

Q: And the inhibition (PRVABC59, Concentration 99.9 uM, Number of replicates 2.0, Standard deviation 25.978935740254965 %)?
A: -1.08%

Q: For Nc1ccc(Cl)c2ncccc12, which inhibition (PRVABC59, Concentration 49.95 uM, Number of replicates 2.0, Standard deviation 10.856665376334321 %) is on record?
A: 2.86%

Q: What about the inhibition (PRVABC59, Concentration 99.9 uM, Number of replicates 2.0, Standard deviation 9.901328830284072 %) of the same molecule?
A: 10.8%

Q: With O=Cc1ccc(N2CCC(C(=O)NCCc3ccc(C(F)(F)F)cc3)CC2)cc1 as the molecule, how does the inhibition [1] read?
A: 25.7%

Q: How did the inhibition [1] turn out when O=Cc1ccc(N2CCC(C(=O)N(CC3CC3)C3CCCCC3)CC2)cc1 was run?
A: 25.3%

Q: How did the inhibition [1] turn out when CN(Cc1c(Cl)cccc1Cl)C(=O)C1CCN(c2ccc(C=O)cc2)CC1 was run?
A: 21.3%

Q: For Cc1cc(Br)ccc1CNC(=O)c1cc(Cl)ccc1NS(=O)(=O)c1ccc(Oc2ccccc2Cl)cc1, which inhibition [2] is on record?
A: 27.2%

Q: Which inhibition (PRVABC59, Concentration 49.5 uM, Number of replicates 2.0, Standard deviation 4.014215726370852 %) does the source give for COc1cc(COCc2c(F)cccc2F)nc(N2CCNCC2)n1 here?
A: 1.34%

Q: And the inhibition (PRVABC59, Concentration 99.01 uM, Number of replicates 2.0, Standard deviation 1.3567137127677436 %)?
A: 0.451%

Q: And the inhibition (PRVABC59, Concentration 198.0 uM, Number of replicates 2.0, Standard deviation 2.4648693367218852 %)?
A: 2.97%

Q: How did the inhibition [2] turn out when O=C(c1cc(Cl)ccc1NS(=O)(=O)c1ccc(Oc2ccccc2Cl)cc1)N1CCC[C@H](c2nnc3ccccn23)C1 was run?
A: 4.59%

Q: With O=Cc1ccc(N2CCC(C(=O)NCc3ccc(Cl)cc3F)CC2)cc1 as the molecule, how does the inhibition [3] read?
A: 5.67%

Q: For CCn1ccnc(N[C@@H](Cc2c[nH]c3ccccc23)C(=O)NCc2ccccc2)c1=O, which inhibition (PRVABC59, Concentration 49.5 uM, Number of replicates 2.0, Standard deviation 0.0 %) is on record?
A: 1.29%

Q: And the inhibition (PRVABC59, Concentration 99.01 uM, Number of replicates 2.0, Standard deviation 0.05654589783615587 %)?
A: 4.52%

Q: What about the inhibition (PRVABC59, Concentration 198.0 uM, Number of replicates 2.0, Standard deviation 0.6421999601301945 %) of the same molecule?
A: 9.85%
